Results as given in article PMC5609931.
No constants are given. Whether binding was seen depends on the method and setting. Binding seen in cells or lysates may run through a third protein. Some binding calls cover weakened binding; strength is not graded here. Values belong to the substance of their own block, whether it stands above or below them.

The chains behind the UniProt entries cited, without tags or fusion partners. Where a name states a change or a piece, a line headed by the entry shows the natural chain unless it says otherwise. Residues count along the entry.
UniProt P31749: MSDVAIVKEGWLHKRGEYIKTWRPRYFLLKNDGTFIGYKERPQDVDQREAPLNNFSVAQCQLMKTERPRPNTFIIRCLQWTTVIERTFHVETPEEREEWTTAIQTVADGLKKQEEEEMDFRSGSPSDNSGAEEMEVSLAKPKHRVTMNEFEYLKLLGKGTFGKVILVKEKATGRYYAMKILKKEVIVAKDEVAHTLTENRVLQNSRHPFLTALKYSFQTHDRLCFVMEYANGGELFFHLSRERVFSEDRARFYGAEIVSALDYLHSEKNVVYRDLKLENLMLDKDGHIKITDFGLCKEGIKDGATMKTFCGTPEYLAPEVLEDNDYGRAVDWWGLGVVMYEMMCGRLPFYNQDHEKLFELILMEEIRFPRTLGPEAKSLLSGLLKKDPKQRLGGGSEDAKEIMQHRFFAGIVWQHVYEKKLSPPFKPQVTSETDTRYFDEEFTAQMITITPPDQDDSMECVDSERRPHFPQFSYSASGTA
GST-Akt aa 1-107: residues 1-107 of P31749
GST-Akt aa 149-480: residues 149-480 of P31749
UniProt P61224: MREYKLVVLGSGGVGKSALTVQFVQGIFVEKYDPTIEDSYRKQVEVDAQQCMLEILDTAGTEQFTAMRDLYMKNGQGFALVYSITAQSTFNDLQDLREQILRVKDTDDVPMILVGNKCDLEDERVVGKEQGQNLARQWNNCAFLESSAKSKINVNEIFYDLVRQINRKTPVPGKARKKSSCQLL
UniProt Q9BPZ7: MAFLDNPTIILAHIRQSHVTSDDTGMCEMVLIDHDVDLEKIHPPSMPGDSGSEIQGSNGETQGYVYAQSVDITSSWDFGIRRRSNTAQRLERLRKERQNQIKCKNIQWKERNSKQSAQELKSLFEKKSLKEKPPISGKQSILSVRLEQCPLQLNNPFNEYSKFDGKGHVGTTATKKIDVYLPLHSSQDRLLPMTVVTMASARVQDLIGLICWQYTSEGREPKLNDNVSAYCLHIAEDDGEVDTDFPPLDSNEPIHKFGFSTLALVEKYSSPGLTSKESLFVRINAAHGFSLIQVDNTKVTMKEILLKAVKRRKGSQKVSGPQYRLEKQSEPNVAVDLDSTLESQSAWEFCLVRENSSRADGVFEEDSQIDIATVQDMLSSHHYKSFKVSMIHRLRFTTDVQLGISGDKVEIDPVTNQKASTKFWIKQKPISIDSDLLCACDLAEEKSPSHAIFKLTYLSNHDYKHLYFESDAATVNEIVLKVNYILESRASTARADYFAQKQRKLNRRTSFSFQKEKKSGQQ
HA-Rictor aa 1-860 (Q6R327, residues 1-860): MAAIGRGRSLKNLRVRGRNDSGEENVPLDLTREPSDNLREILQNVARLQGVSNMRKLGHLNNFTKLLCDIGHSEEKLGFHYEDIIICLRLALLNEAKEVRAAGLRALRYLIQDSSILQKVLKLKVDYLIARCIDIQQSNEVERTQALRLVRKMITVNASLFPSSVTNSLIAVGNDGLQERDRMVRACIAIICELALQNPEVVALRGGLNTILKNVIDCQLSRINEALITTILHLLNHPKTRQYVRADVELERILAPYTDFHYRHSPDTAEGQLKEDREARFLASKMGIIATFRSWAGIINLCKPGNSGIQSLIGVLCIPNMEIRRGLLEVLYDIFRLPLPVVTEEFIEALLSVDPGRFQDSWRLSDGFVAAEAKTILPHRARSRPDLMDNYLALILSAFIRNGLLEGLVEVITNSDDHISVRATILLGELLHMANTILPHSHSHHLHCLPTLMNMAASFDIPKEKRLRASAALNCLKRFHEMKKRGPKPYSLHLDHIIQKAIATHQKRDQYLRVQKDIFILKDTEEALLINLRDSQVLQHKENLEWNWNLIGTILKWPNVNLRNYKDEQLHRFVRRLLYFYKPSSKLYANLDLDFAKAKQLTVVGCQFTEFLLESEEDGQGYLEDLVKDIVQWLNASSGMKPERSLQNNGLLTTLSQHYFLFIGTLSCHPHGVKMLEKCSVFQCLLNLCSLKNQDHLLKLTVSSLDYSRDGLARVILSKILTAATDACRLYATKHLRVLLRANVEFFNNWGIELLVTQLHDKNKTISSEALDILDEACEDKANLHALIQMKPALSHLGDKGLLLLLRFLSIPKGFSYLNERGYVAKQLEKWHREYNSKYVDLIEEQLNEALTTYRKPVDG
HA-Rictor aa 1181-1708 (Q6R327, residues 1181-1708): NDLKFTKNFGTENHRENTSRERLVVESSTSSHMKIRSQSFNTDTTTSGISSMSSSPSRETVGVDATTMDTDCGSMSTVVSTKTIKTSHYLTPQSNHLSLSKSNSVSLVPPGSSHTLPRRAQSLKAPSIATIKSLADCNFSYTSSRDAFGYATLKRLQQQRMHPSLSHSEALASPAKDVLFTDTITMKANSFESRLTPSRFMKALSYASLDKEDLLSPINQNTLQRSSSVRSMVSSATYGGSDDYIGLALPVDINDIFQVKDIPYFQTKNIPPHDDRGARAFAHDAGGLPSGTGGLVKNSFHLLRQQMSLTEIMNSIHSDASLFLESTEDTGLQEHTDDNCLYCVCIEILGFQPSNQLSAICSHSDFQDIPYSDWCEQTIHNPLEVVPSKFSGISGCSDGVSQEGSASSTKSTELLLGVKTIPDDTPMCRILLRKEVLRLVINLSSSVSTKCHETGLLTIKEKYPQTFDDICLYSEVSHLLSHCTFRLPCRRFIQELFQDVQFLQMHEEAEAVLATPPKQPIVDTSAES
UniProt Q8N122: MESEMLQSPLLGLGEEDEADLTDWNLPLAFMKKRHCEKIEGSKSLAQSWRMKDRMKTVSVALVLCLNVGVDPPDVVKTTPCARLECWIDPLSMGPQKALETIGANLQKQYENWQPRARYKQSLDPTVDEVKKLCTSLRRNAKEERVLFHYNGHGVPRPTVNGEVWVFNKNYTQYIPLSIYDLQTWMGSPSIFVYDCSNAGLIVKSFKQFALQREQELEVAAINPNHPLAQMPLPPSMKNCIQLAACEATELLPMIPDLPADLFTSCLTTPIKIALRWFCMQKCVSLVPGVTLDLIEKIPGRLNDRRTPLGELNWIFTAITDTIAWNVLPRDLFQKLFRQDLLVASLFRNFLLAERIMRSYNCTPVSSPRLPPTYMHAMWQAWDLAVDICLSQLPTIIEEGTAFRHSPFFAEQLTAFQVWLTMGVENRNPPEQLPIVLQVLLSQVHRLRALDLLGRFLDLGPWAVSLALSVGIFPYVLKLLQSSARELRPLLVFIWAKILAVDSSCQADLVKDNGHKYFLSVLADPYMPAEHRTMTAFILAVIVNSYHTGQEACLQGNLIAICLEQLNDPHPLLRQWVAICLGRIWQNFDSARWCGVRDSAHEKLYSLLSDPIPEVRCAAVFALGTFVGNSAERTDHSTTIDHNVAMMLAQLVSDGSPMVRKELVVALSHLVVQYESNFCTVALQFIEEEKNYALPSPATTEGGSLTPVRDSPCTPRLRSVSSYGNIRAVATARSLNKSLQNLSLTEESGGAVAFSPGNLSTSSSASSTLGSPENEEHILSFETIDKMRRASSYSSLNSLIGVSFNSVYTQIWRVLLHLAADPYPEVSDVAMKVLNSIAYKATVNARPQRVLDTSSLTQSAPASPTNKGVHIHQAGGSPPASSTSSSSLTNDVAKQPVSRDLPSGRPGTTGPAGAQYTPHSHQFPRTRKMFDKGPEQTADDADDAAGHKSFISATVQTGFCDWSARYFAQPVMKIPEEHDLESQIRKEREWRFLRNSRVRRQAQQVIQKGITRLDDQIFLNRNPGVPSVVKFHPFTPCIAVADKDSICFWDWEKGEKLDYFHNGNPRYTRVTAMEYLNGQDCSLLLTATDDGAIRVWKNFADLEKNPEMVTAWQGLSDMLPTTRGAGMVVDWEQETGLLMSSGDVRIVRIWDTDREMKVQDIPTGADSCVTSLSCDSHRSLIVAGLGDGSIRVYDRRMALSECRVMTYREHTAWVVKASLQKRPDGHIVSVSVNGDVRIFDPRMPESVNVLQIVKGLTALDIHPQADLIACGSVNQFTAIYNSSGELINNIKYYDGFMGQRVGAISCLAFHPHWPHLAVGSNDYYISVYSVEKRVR

Key:
[1] = biological target: FLAG-mSin1 wild-type (mouse) (UniProt Q8BKH7); assay: co-IP; HEK 293T co-transfected with a FLAG-tagged and an HA- or GST-tagged protein; FLAG antibody IP from lysate (0.25% CHAPS lysis buffer, washes incl. 0.5 M NaCl, 4°C), Western blot with anti-HA or anti-GST
[2] = biological target: GST-Akt aa 1-107 (UniProt P31749); assay: pull-down; HEK 293T co-transfected with a GST-tagged protein and FLAG-mSin1 or a fragment; GSH pull down from lysate, anti-FLAG blot
[3] = biological target: GST-HaRas G12V (UniProt P01112); assay: as above
[4] = biological target: GST-Akt aa 149-480 (UniProt P31749); assay: as above
[5] = biological target: GST-Rap1b G12V (UniProt P61224); assay: as above
[6] = biological target: FLAG-mSin1 aa 220-313 (mouse) (UniProt Q8BKH7); assay: co-IP; HEK 293T co-transfected with a FLAG-tagged and an HA- or GST-tagged protein; FLAG antibody IP from lysate (0.25% CHAPS lysis buffer, washes incl. 0.5 M NaCl, 4°C), Western blot with anti-HA or anti-GST
[7] = biological target: FLAG-mSin1 Δaa 240-313 (mouse) (UniProt Q8BKH7); assay: as above
[8] = biological target: FLAG-mSin1 aa 315-522 (mouse) (UniProt Q8BKH7); assay: as above
[9] = biological target: FLAG-mSin1 aa 1-460 (mouse) (UniProt Q8BKH7); assay: as above
[10] = biological target: endogenous mSin1 (human (endogenous in HEK 293T)) (UniProt Q9BPZ7); assay: co-IP; endogenous proteins; HEK 293T lysed in buffer containing 0.25% CHAPS; IP and reciprocal IP with Raptor, Rictor or mSin1 antibodies

binding [2]: binds
binding [3]: binds
binding [4]: no binding
binding [5]: no binding
Substance: FLAG-mSin1 wild-type (from UniProt Q8BKH7 1-522)

binding [3]: binds
Substance: FLAG-mSin1 aa 260-460 (from UniProt Q8BKH7 260-460) (domain or fragment)

The next lines start with the substance.

Substance: HA-mSin1 (from UniProt Q8BKH7 1-522)
binding [1]: binds

Substance: HA-Rictor aa 1-860 (from UniProt Q6R327 1-860) (domain or fragment)
binding [1]: no binding

Substance: HA-Rictor aa 1181-1708 (from UniProt Q6R327 1181-1708) (domain or fragment)
binding [1]: binds

Substance: GST-Akt WT (from UniProt P31749 1-480)
binding [6]: binds
binding [1]: binds
binding [7]: no binding
binding [8]: no binding
binding [9]: binds

Substance: endogenous Raptor (from UniProt Q8N122 1-1335)
binding [10]: no binding
